In the supplement of paper PMC10369915:
This is one part of the list. Rule as the data show it: active = 3.2 or more and inactive = the rest. Most of these values are background signal.

target: SHP2 C-SH2 domain E139D; assay: enrichment score (SH2-bound / input frequency) (ratio); bacterial display of known human phosphotyrosine sites (pTyr-Var adds point mutants) read by sequencing; higher = stronger binding; tyrosines were phosphorylated by kinases first; conditions: peptide library: pTyr-Var
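Also: displayed peptides selected on beads carrying the immobilized SH2 domain, with library peptides lacking any tyrosine serving as negative controls.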

Enrichment score, inactive:
LNNIIYRVERA [CUX2_Y1470] 1.07
SERNNYSRVAN [CWC22_Y797] 0.469
FSKTQYNQVPR [CXADR_Y318_S323R_YF] 0.765
KASIMYPSNNC [CXCL11_Y52] 0.667
KASIMYPSSNC [CXCL11_Y52_N55S] 0.651
RESYKYFPSSL [CXXC1_Y218] 1.05
RESFKYLPSSL [CXXC1_Y218_F219L_YF] 0.696
RWGQKYMTAVV [CYBA_Y72] 2.16
PFTRNYYVQAV [CYBA_Y87_R90Q] 0.844
PFTRNYFVWAV [CYBA_Y87_R90W_YF] 1.29
PFTRNYFVRAV [CYBA_Y87_YF] 0.37
GQAPGYSFTAA [CYCS_Y47_YF] 0.641
DTLMEYLENPK [CYCS_Y68] 1.04
DTLLEYLENPK [CYCS_Y68_M66L] 0.893
NRVEIYDKTVE [CYFIP1_Y108_E109D] 0.916
GPIFRYDSGGA [CYP11B1_Y81_L83S] 0.978
VKKKLDEEIDQ [CYP17A1_Y329_Y329D] 0.666
KLQKKYGPIYS [CYP17A1_Y60] 0.822
MENFIYESMRY [CYP19A1_Y361] 1.13

target: SHP2 C-SH2 domain wild-type; assay: as above; conditions: peptide library: pTyr-Var

Enrichment score, inactive:
LNNIIYRVERA [CUX2_Y1470] 1.19
SERNNYSRVAN [CWC22_Y797] 1.15
FSKTQYNQVPR [CXADR_Y318_S323R_YF] 0.655
KASIMYPSNNC [CXCL11_Y52] 0.737
KASIMYPSSNC [CXCL11_Y52_N55S] 0.523
RESYKYFPSSL [CXXC1_Y218] 0.756
RESFKYLPSSL [CXXC1_Y218_F219L_YF] 0.83
RWGQKYMTAVV [CYBA_Y72] 1.62
PFTRNYYVQAV [CYBA_Y87_R90Q] 1.25
PFTRNYFVWAV [CYBA_Y87_R90W_YF] 1.57
PFTRNYFVRAV [CYBA_Y87_YF] 0.571
GQAPGYSFTAA [CYCS_Y47_YF] 0.562
DTLMEYLENPK [CYCS_Y68] 0.907
DTLLEYLENPK [CYCS_Y68_M66L] 0.922
NRVEIYDKTVE [CYFIP1_Y108_E109D] 0.812
GPIFRYDSGGA [CYP11B1_Y81_L83S] 0.86
VKKKLDEEIDQ [CYP17A1_Y329_Y329D] 0.588
KLQKKYGPIYS [CYP17A1_Y60] 0.847
MENFIYESMRY [CYP19A1_Y361] 1.14

target: SHP2 N-SH2 domain L43F; assay: as above; conditions: peptide library: pTyr-Var

Enrichment score, inactive:
LNNIIYRVERA [CUX2_Y1470] 0.967
SERNNYSRVAN [CWC22_Y797] 0.429
FSKTQYNQVPR [CXADR_Y318_S323R_YF] 0.591
KASIMYPSNNC [CXCL11_Y52] 0.755
KASIMYPSSNC [CXCL11_Y52_N55S] 0.634
RESYKYFPSSL [CXXC1_Y218] 1.06
RESFKYLPSSL [CXXC1_Y218_F219L_YF] 0.801
RWGQKYMTAVV [CYBA_Y72] 1.9
PFTRNYYVQAV [CYBA_Y87_R90Q] 0.805
PFTRNYFVWAV [CYBA_Y87_R90W_YF] 1.72
PFTRNYFVRAV [CYBA_Y87_YF] 0.45
GQAPGYSFTAA [CYCS_Y47_YF] 0.68
DTLMEYLENPK [CYCS_Y68] 1.02
DTLLEYLENPK [CYCS_Y68_M66L] 1.2
NRVEIYDKTVE [CYFIP1_Y108_E109D] 0.868
GPIFRYDSGGA [CYP11B1_Y81_L83S] 0.817
VKKKLDEEIDQ [CYP17A1_Y329_Y329D] 0.726
KLQKKYGPIYS [CYP17A1_Y60] 0.615
MENFIYESMRY [CYP19A1_Y361] 1.2

target: SHP2 N-SH2 domain T42A; assay: as above; conditions: peptide library: pTyr-Var

Enrichment score, inactive:
LNNIIYRVERA [CUX2_Y1470] 0.939
SERNNYSRVAN [CWC22_Y797] 0.488
FSKTQYNQVPR [CXADR_Y318_S323R_YF] 0.536
KASIMYPSNNC [CXCL11_Y52] 0.535
KASIMYPSSNC [CXCL11_Y52_N55S] 0.536
RESYKYFPSSL [CXXC1_Y218] 1.17
RESFKYLPSSL [CXXC1_Y218_F219L_YF] 0.764
RWGQKYMTAVV [CYBA_Y72] 1.76
PFTRNYYVQAV [CYBA_Y87_R90Q] 0.567
PFTRNYFVWAV [CYBA_Y87_R90W_YF] 1.36
PFTRNYFVRAV [CYBA_Y87_YF] 0.46
GQAPGYSFTAA [CYCS_Y47_YF] 0.555
DTLMEYLENPK [CYCS_Y68] 0.884
DTLLEYLENPK [CYCS_Y68_M66L] 0.681
NRVEIYDKTVE [CYFIP1_Y108_E109D] 0.846
GPIFRYDSGGA [CYP11B1_Y81_L83S] 0.84
VKKKLDEEIDQ [CYP17A1_Y329_Y329D] 0.679
KLQKKYGPIYS [CYP17A1_Y60] 0.524
MENFIYESMRY [CYP19A1_Y361] 1.06

target: SHP2 N-SH2 domain T52S; assay: as above; conditions: peptide library: pTyr-Var

Enrichment score, inactive:
LNNIIYRVERA [CUX2_Y1470] 0.745
SERNNYSRVAN [CWC22_Y797] 0.468
FSKTQYNQVPR [CXADR_Y318_S323R_YF] 0.742
KASIMYPSNNC [CXCL11_Y52] 0.504
KASIMYPSSNC [CXCL11_Y52_N55S] 0.59
RESYKYFPSSL [CXXC1_Y218] 0.983
RESFKYLPSSL [CXXC1_Y218_F219L_YF] 0.554
RWGQKYMTAVV [CYBA_Y72] 2.11
PFTRNYYVQAV [CYBA_Y87_R90Q] 0.647
PFTRNYFVWAV [CYBA_Y87_R90W_YF] 1.96
PFTRNYFVRAV [CYBA_Y87_YF] 0.569
GQAPGYSFTAA [CYCS_Y47_YF] 0.51
DTLMEYLENPK [CYCS_Y68] 0.972
DTLLEYLENPK [CYCS_Y68_M66L] 0.948
NRVEIYDKTVE [CYFIP1_Y108_E109D] 0.87
GPIFRYDSGGA [CYP11B1_Y81_L83S] 0.924
VKKKLDEEIDQ [CYP17A1_Y329_Y329D] 0.802
KLQKKYGPIYS [CYP17A1_Y60] 0.724
MENFIYESMRY [CYP19A1_Y361] 1.3

target: SHP2 N-SH2 domain wild-type; assay: as above; conditions: peptide library: pTyr-Var

Enrichment score, inactive:
LNNIIYRVERA [CUX2_Y1470] 0.569
SERNNYSRVAN [CWC22_Y797] 0.527
FSKTQYNQVPR [CXADR_Y318_S323R_YF] 0.734
KASIMYPSNNC [CXCL11_Y52] 0.755
KASIMYPSSNC [CXCL11_Y52_N55S] 0.733
RESYKYFPSSL [CXXC1_Y218] 1.26
RESFKYLPSSL [CXXC1_Y218_F219L_YF] 0.982
RWGQKYMTAVV [CYBA_Y72] 2
PFTRNYYVQAV [CYBA_Y87_R90Q] 0.805
PFTRNYFVWAV [CYBA_Y87_R90W_YF] 1.55
PFTRNYFVRAV [CYBA_Y87_YF] 0.425
GQAPGYSFTAA [CYCS_Y47_YF] 0.611
DTLMEYLENPK [CYCS_Y68] 1.17
DTLLEYLENPK [CYCS_Y68_M66L] 1.14
NRVEIYDKTVE [CYFIP1_Y108_E109D] 1.16
GPIFRYDSGGA [CYP11B1_Y81_L83S] 0.896
VKKKLDEEIDQ [CYP17A1_Y329_Y329D] 0.763
KLQKKYGPIYS [CYP17A1_Y60] 0.75
MENFIYESMRY [CYP19A1_Y361] 1.1
